Here are results for 46 compounds from PubChem BioAssay AID1159614 (National Center for Advancing Translational Sciences (NCATS), 2016).

Hit rate of the full screen: of about 45,000 compounds, about 65 (0.1%) were called active. Calls follow the shape of the dose curve; as a rule, active = well fitted activation curve with a large enough effect; inconclusive = small, poorly fitted or top-dose-only effect; inactive = no such curve, though single readings can be large or run the other way. The list shows a part of the results.

Chain of UniProt P54803 (P54803 whole entry, looked up): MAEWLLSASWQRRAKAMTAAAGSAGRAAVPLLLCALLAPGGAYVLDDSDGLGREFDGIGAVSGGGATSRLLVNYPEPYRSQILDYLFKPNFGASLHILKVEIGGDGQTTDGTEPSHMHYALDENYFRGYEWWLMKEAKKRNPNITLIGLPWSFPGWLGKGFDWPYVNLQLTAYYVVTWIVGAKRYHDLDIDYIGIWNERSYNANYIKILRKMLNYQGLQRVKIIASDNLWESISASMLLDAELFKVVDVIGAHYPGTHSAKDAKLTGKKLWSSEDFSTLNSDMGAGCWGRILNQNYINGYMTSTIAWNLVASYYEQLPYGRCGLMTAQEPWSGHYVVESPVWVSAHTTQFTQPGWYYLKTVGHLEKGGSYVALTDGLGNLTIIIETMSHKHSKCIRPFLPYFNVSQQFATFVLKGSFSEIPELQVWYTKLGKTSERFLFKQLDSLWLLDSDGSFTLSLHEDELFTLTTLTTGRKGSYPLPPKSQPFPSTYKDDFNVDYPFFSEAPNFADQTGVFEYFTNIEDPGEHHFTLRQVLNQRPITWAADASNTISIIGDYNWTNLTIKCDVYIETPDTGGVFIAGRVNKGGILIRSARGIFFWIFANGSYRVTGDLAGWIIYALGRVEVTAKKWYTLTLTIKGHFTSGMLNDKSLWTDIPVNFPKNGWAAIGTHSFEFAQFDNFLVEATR

In this assay the target is Galactocerebrosidase (Homo sapiens) (UniProt P54803). Briefly: A Novel Cell-Based Assay to Identify Small Molecules for B -Galactocerebrosidase. Also: 0% is about no effect; nearly all actives have a fitted effect of over 65% in size. The settings on record: 145M-Twi-hGALC-G270D cells, HMU-beta-Gal fluorescence, 48 h; series mostly up to 57.5 µM; activation: at the top concentration. The method, boiled down:
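qHTS, 1536-well; 145M-Twi-hGALC-G270D cells (WT line also made) in DMEM/F12 + 10% FBS; compound incubation on live cells; HMU-β-gal 0.1 mM final, pH 5.2, NaTC; carbonate stop; fluorescence increase = enhanced residual activity.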
Consider `COC(=O)c1ccccc1NC(=O)c1cc(CN2CCCC2)on1`, for which the “activation” value was inactive: -17.5%.
In the case of `Cc1ccc2c(c1)-c1onc(C(=O)N3CCN(c4cc(Cl)ccc4C)CC3)c1CO2` it was inactive: -8.98%; in that of `CCOc1ccc(-c2nnc(SCC(=O)Nc3ccc(C)cc3Cl)o2)cc1`, inactive: -14.8%.
For the compound `CCC(=O)N1CCc2cc(CNC(=O)Cc3ccc(F)cc3)ccc21`, the “activation” value was inactive: -14.1%.
As to `CC1Cc2ccccc2N1S(=O)(=O)c1nnc(NC(=O)c2cccc(F)c2)s1` (stereo unspecified), the “activation” value is inactive: -12.1%.
With `CC(=O)c1ccc(N2CCN(S(=O)(=O)c3cc(-c4noc(C)n4)ccc3C)CC2)cc1` the figure was inactive: -0.913%.
With `Cc1ccc(Cn2c(CNC(=O)Cc3cccc(C)c3)nc3cccnc32)cc1`, the “activation” value was inactive: -7.68%.
Consider `COc1ccc(CNC(=O)Cn2c(=O)ccc3cc(S(=O)(=O)N4CCCC4)ccc32)cc1`, for which the “activation” value is inactive: -5.29%.
With `Cc1nn(S(=O)(=O)c2ccc(C(C)(C)C)cc2)c(C)c1S(=O)(=O)N1CCC(C)CC1` the figure was inactive: -14.7%; with `Cc1c(C(=O)N2CCC(C)CC2)c(S(=O)(=O)Nc2cccc(C(F)(F)F)c2)c(C)n1C`, inactive: -5.9%.
For the compound `CCOC(=O)c1c(NC(=O)COc2ccc(C)cc2C(C)(C)C)sc2c1CCC(C)C2` (stereo unspecified), the “activation” value is inactive: -4.04%.
In the case of `COc1ccc(OC)c(CCNC(=O)c2cnn(-c3ccc(C)cc3C)c2C2CCN(C(=O)OC(C)(C)C)CC2)c1` it was inactive: -8.48%; in that of `CC(C)N(Cc1ccccc1)C(=O)C1CCCN(c2ncnc3onc(-c4ccc(F)cc4)c23)C1` (stereo unspecified), inactive: -9.78%.
In the case of `COCC(=O)Nc1cccc(-c2nc3cccnc3s2)c1` it was inactive: 0.828%; in that of `COc1ccccc1CNC(=O)c1cnc(SC)nc1C`, inactive: -7.05%.
In the case of `COc1ccc2[nH]cc(CCNC(=O)c3cnn(-c4ccc(C)cc4)c3C3CCN(C(=O)OC(C)(C)C)CC3)c2c1`, the “activation” value is inactive: -17.7%.
In the case of `CC(=O)Nc1ccc(NC(=O)C2(c3cccs3)CCOCC2)cc1` it was inactive: 6.1%; in that of `COCCN1C(=O)c2oc3ccc(C)cc3c(=O)c2C12C(=O)N(C)c1ccccc12` (stereo unspecified), inactive: -4.58%.
Turning to `O=C(Nc1cc(-c2nc3cc(Cl)ccc3o2)ccc1Cl)c1cc([N+](=O)[O-])ccc1N1CCOCC1`, the “activation” value is inactive: 2.7%.
In the case of `Cc1cc2n(n1)CCC(=O)N2Cc1ccc(C(=O)Nc2ccc(F)cc2F)cc1` it was inactive: -1.24%; in that of `CCOC(=O)c1ccc(NC(=O)CC2Nc3ccccc3NC2=O)cc1` (stereo unspecified), inactive: -6.5%.
With `CCOC(=O)c1ccc(N2C(=O)c3[nH]nc(-c4ccc(OCC)cc4)c3C2c2cccs2)cc1` (stereo unspecified) the figure was inactive: 0.901%.
In the case of `Cc1cc(-c2ccc(S(=O)(=O)N3CCN(c4ccc(Cl)cc4)CC3)s2)on1` it was inactive: -8.14%.
On to `COc1ccc(-c2nc3scc(CCNC(=O)c4cccc(Br)c4)n3n2)cc1`, for which the “activation” value was inactive: -13.9%.
With `COc1ccc(NC(=O)c2sc3nc4c(c(-c5ccc(OC)cc5)c3c2N)C(=O)CC(C)(C)C4)cc1` the figure was inactive: -6.82%.
With `O=C(c1ccccc1Cl)N1CCCCC1CCN1CCOCC1` (stereo unspecified) the figure was inactive: -2.79%; with `CCOc1cccc2c1Oc1nc(-c3ccccc3)nc(SCC(=O)Nc3ccc(F)cc3)c1C2`, inactive: -16%.
With `Cc1ccc(-c2nnc(Nc3ccc(F)cc3)c3ccccc23)cc1S(=O)(=O)N1CCN(C)CC1` the figure was inactive: -17.6%; with `Cc1ccc(CNCc2cccn2-c2nnc(N3CCCC3)s2)cc1`, inactive: -18.7%; with `CCC(C(=O)NC1CCC(C)CC1)n1nc(C)c2sc3ccccc3c2c1=O` (stereo unspecified), inactive: -4.97%.
For `CC(C)c1ccc(NC(=O)CSc2nc3ccccc3nc2Cc2ccccc2)cc1`, the “activation” value is inactive: -11.5%.
In the case of `COc1ccccc1CNC(=O)C1CCN(S(=O)(=O)c2ccc3c(c2)CCCN3C(C)=O)CC1` it was inactive: -18.9%.
In the case of `COc1cccc(N2CCN(C(=O)CCCCCn3c(=O)[nH]c4ccccc4c3=O)CC2)c1` it was inactive: -8.95%; in that of `CC1CCn2c(nc3cc(C(=O)NCc4ccc(OC(C)C)cc4)ccc32)C1` (stereo unspecified), inactive: -6.1%.
On to `Cc1ccc(S(=O)(=O)N(C)Cc2nc(-c3ccccc3)oc2C)cc1`, for which the “activation” value was inactive: -8.76%.
With `COc1ccc(Cn2ccc3nc(C)c(C(=O)N4CCN(c5ccc(OC)cc5)CC4)cc3c2=O)cc1` the figure was inactive: -23.8%; with `CCOc1ccccc1NC(=O)Cn1nnc(C(=O)NCc2ccc(F)cc2)c1N`, inactive: -11.5%; with `CN(C)CCNC(=O)C(=O)NCC(c1cccnc1)N1CCN(c2ccc(F)cc2)CC1` (stereo unspecified), inactive: -13.6%.
In the case of `CCc1nc2nc(C)c(NS(=O)(=O)c3ccc(C)cc3)c(=O)n2[nH]1` it was inactive: 1.39%; in that of `CCCCCCCCCCCCCCCCC(C(=O)O)C(O)(CC(=O)O)C(=O)O` (stereo unspecified), inactive: 0.0215%; in that of `COc1ccc(C(=O)NCc2ccc3c(c2)CCN3C(=O)c2ccc(C)cc2)cc1`, inactive: -13.2%.
With `COc1ccc(OC)c(NC(=O)c2cc(C3CC3)nc3c2c(C)nn3-c2ccc(C)cc2)c1` the figure was inactive: -15.3%; with `COc1ccc(-c2c(C)nn3c(C(F)(F)F)cc(-c4ccccc4)nc23)cc1`, inactive: -11.6%; with `O=C(NCc1ccco1)c1ccc2c(c1)N(Cc1c(F)cccc1Cl)C(=O)c1ccccc1S2`, inactive: -13.5%.
With `O=C(Cn1cc(SCc2ccccc2F)c2ccccc21)N1CCCCC1`, the “activation” value was inactive: -5.78%.
With `Cc1cc(C)cc(NC(=O)Cc2c(C(=O)O)c(C)cn2C)c1` the figure was inactive: -1%.
